46 molecules from PubChem BioAssay AID1508624 (National Center for Advancing Translational Sciences (NCATS), 2021) can be followed below.

Structures are written as SMILES. Hit rate of the full screen: of about 48,000 compounds, about 120 (0.25%) were called active. Another 4% or so got no clear call; they are omitted. Calls follow the shape of the dose curve; as a rule, active = well fitted activation curve with a large enough effect; inconclusive = small, poorly fitted or top-dose-only effect, or another doubt; inactive = no such curve, though single readings can be large or run the other way. Only a part is listed here, and it is no random draw. The source gives no active or inactive call for entries shown without one.
Potency is read from the fitted curve at half-maximal effect.

This test can be described thus: Primary qHTS for Identification of Small Molecule Activators of Huntingtin-Antisense Promoter Activity. Also: nearly all actives have a fitted effect of over 55% in size. The following applies: HEK293 HTT-AS promoter firefly luciferase reporter, 24 h; activity change, positive = activation: at 57.5 µM (top of the series), percent change from vehicle, -100% = no light. The essentials: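 Luminescence was read after Dual-Glo reagent and a 10 min room-temperature incubation. Values were normalized to vehicle (0% activity) and zero RLU (-100% activity). Reporter HEK293 cells had been exposed to compounds (up to 57.5 uM final) for 24 h.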
On the technique in general: qHTS replaces the single test concentration by a dilution series.
In the case of `CCc1ccc(CNC(=O)c2ccc(-c3nc(CS(=O)(=O)c4ccccc4)c(C)o3)cc2)cc1`, the activity change, positive = activation is -14.6%.
Still for that read-out and setting: the result for `Cc1ccc(C(=O)NCC(c2cccs2)S(=O)(=O)c2cccs2)cc1` (stereo unspecified) reads inactive: -35.8%; that for `COC(=O)CN1C(=O)CSc2ccc(S(=O)(=O)N3CCOCC3)cc21`, 7.61%; that for `O=C1C(=O)N(C2CCN(S(=O)(=O)c3ccc(F)cc3)CC2)CCN1Cc1ccccc1`, 7.07%.
Turning to `CCc1ccccc1NC(=O)CSc1nnc(-c2cc(OC)c(OC)c(OC)c2)o1`, the activity change, positive = activation is 2.34%.
For `COc1ccc(CNC(=O)c2cc3ccccn3n2)c(OC)c1`, the activity change, positive = activation was 2.81%.
On the same count and under the same terms, in the case of `CCCCOc1ccc(CNC(=O)Cn2ncn3c(cc4cc(F)ccc43)c2=O)cc1` it was -4.72%; in that of `COc1ccc(N2CCN(S(=O)(=O)c3c(C)nc4scc(C)n4c3=O)CC2)cc1`, -27.4%; in that of `CCOC(=O)c1cccc(NC(=O)CC2C(=O)N(c3ccc(F)cc3)C(=O)N2C(C)C)c1` (stereo unspecified), -7.29%.
The same measure, in the same setting: in the case of `Cc1ccc(-c2nc3ncccc3o2)cc1NC(=O)COc1ccc(C(C)C)cc1` it was -27.6%; in that of `COc1ccc(C)cc1NS(=O)(=O)c1ccc2c(c1)[C@H]1C=CC[C@H]1[C@@H](c1cccc(Cl)c1)N2`, -17.2%; in that of `CCCS(=O)(=O)N1CCC(N2CCN(Cc3ccc(C)cc3)C(=O)C2=O)CC1`, 3.89%.
On the same count and under the same terms, the result for `Cc1cc(=O)[nH]c2nnc(SCC(=O)Nc3cc(C(F)(F)F)ccc3Cl)n12` reads inactive: -19.5%.
`Cc1cccc(NC(=O)CSc2nnc(-c3cccs3)o2)c1`: the Potency is active: 25.1 µM.
Regarding `COc1ccc(C(=O)NCC(c2ccco2)S(=O)(=O)c2ccccc2)cc1` (stereo unspecified), the “activity change, positive = activation” value is inactive: -0.317%.
Take `CCOC(=O)c1cccc(NC(=O)CC2C(=O)N(c3ccc(Cl)cc3)C(=O)N2C2CCCC2)c1` (stereo unspecified): the activity change, positive = activation was -46.6%.
On the same count and under the same terms, the result for `Cc1ccc(C(=O)Nc2ccccc2)cc1S(=O)(=O)Nc1ccc(Br)cc1` reads inactive: -36.5%; that for `COc1ccc2c(c1)cc1c(=O)n(CC(=O)NC(C)C)nc(C)n12`, -3.18%; that for `COc1ccc(S(=O)(=O)Nc2ccc(-c3ccc(N4CCCC4)nn3)cc2)cc1F`, 2.61%.
Still for that read-out and setting: in the case of `COc1ccc(NC(=O)CC2C(=O)N(c3cccc(OC)c3)C(=O)N2Cc2cccnc2)cc1` (stereo unspecified) it was -1.9%.
Still for that read-out and setting: in the case of `Cn1c(=O)c2c(nc(SCC(=O)Nc3ccc(F)cc3)n2Cc2ccc(Cl)cc2)n(C)c1=O` it was -15.2%.
`O=C1c2ccccc2C(=O)C1(c1ccccc1)N1CCN(c2cccc(C(F)(F)F)c2)CC1`: the “activity change, positive = activation” value was inactive: -21.8%.
On the same count and under the same terms, the result for `COc1ccc(Cl)cc1NC(=O)c1cc2ccccn2n1` reads 44.1%.
Same read-out and setting: in the case of `CCCC(=O)Nc1cccc(-c2nc3ncccc3o2)c1` it was 26.9%; in that of `O=C(CCCCn1c(=O)c2ccccc2n(CC(=O)Nc2ccc(F)cc2F)c1=O)NCc1ccccc1Cl`, inactive: -5.2%.
Take `Clc1ccc(CCNC(c2cccc(Cl)c2)c2nnc(-c3ccccc3)o2)cc1` (stereo unspecified): the activity change, positive = activation was -9.79%.
Consider `Cc1cc2c(cc1C)-n1c(-c3ccccc3)c3c(=O)n(C)c(=O)n(C)c3c1C(c1ccco1)N2` (stereo unspecified), for which the activity change, positive = activation was -7.2%.
On the same count and under the same terms, the result for `O=C(O)CCc1ccc(-c2ccccc2)n1-c1cccc(Br)c1` reads -17.4%; that for `CN(Cc1ccccc1)C(=O)c1cc2c(s1)-c1ccc(Cl)cc1SC2`, inactive: 11.4%; that for `Cc1ccc(N(C(=O)c2cccc(C)c2)S(=O)(=O)c2ccc(Cl)cc2)cc1`, -37.5%.
Regarding `CCOC(=O)C1CCN(C(=O)c2ccc3c(=O)n4nc(Nc5ccccc5)sc4nc3c2)CC1`, the “activity change, positive = activation” value was inactive: -25.6%.
`CCOC(=O)c1ccc(NC(=O)C2CCN(S(=O)(=O)Cc3ccccc3)CC2)cc1`: the activity change, positive = activation was 7.91%.
On the same count and under the same terms, the result for `Cc1ccccc1NC(=O)c1c(C)oc2ccc(O)c(CN3CCCC(C)C3)c12` (stereo unspecified) reads -28.3%; that for `COc1cc2c(cc1OC)C(c1ccc(F)cc1)N(c1ccccc1)C(=O)C2` (stereo unspecified), -22.9%.
For the molecule `Cc1ccc2oc(-c3cc(NC(=O)Cc4ccccc4)ccc3Cl)nc2c1`, the activity change, positive = activation was -21.3%.
Same read-out and setting: in the case of `Cc1ccc(NC(=O)CCn2nc(-c3ccccc3)c3ccccc3c2=O)c(C)c1` it was -16.8%.
Take `CCc1ccc(C2=C(C)C(N3CCC(C(=O)Nc4ccc(F)cc4)CC3)=NS2(=O)=O)cc1`: the “activity change, positive = activation” value was inactive: -26.9%.
Still for that read-out and setting: the result for `CCOc1ccc(S(=O)(=O)N2CCC(N3CCN(Cc4ccc(C)cc4)C(=O)C3=O)CC2)cc1` reads 2.76%.
The same measure, in the same setting: in the case of `Cc1oc2ccc(O)c(CN3CCCC3)c2c1C(=O)Nc1cccc(Cl)c1C` it was -0.713%.
In the case of `CCc1ccc(S(=O)(=O)Nc2ccc(-c3ccc(N4CCCCCC4)nn3)cc2)cc1`, the activity change, positive = activation is 11.7%.
On to `CCOC(=O)Cn1cccc1-c1nc(-c2ccc(OC)cc2)c(-c2ccc(OC)cc2)s1`, for which the “activity change, positive = activation” value is inactive: -5.68%.
As to `Cc1nc2ccn(Cc3cccs3)c(=O)c2cc1C(=O)NCc1ccccc1`, the activity change, positive = activation is -21.9%.
Consider `CN(C)c1ccc(CNC(=O)c2cc3ccccn3n2)cc1`, for which the activity change, positive = activation worked out at 44.8%.
On the same count and under the same terms, the result for `Cc1ccc(C(CC(=O)NCC2(c3ccccc3)CCCC2)c2ccccc2)c(O)c1` (stereo unspecified) reads -68.9%.
The same measure, in the same setting: the result for `COc1ccc(C2C(=O)N(C3CCCCCC3)CC(=O)N2CCc2ccccc2)cc1` (stereo unspecified) reads -10.1%.
Same read-out and setting: in the case of `COc1ccc(NC(=O)c2cc(-c3ccc4c(c3)OCO4)on2)c(OC)c1` it was 7.07%.
